Literature values as cited in US10105442B2, “Treatment of diabetes type 1 using GLP-1 and anti-IL-21” (Novo Nordisk A/S, priority 2014, dated 2018).

Target: IL-21 (Homo sapiens, UniProt Q9HBE4)
Conditions: cited from earlier work

Chain of IL-21 (Q9HBE4 25-162): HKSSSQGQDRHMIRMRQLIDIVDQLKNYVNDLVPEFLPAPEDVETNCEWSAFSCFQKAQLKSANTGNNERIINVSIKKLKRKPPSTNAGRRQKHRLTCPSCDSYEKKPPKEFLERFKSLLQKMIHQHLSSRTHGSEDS

B1: mAb 14: human anti-IL-21 antibody competing with γC, WO2010055366 clone 366.328.10.63, light and heavy chains SEQ ID NOs 4+5 (IgG4) (antibody)
heavy: EVQLVESGGGLVKPGGSLRLSCAASGFIFSSYSMNWVRQAPGKGLEWVSSITSGSYYIHYADSVKGRFTISRDNAKNSLYLQMNSLRAEDTAVYYCVRERGWGYYGMDVWGQGTTVTVSSASTKGPSVFPLAPCSRSTSESTAALGCLVKDYFPEPVTVSWNSGALTSGVHTFPAVLQSSGLYSLSSVVTVPSSSLGTKTYTCNVDHKPSNTKVDKRV[sequence of human IgG4 Fc omitted]
light: AIQLTQSPSSLSASVGDRVTITCRASQDIDSALAWYQQKPGKAPKILIHDASSLESGVPSRFSGSGSGTDFTLTISSLQPEDFATYYCQQFNSYPYTFGQGTKLEIKRTVAAPSVFIFPPSDEQLKSGTASVVCLLNNFYPREAKVQWKVDNALQSGNSQESVTEQDSKDSTYSLSSTLTLSKADYEKHKVYACEVTHQGLSSPVTKSFNRGEC
modifications: “mAb 14” heavy chain of the IgG4 isotype; “mAb 14”, light chain
  Affinity to IL-21 (in words): in the nanomolar range
